Some test systems named below: WM115; WM1716; WM1745; WM3526; WM3619; WM451Lu.
Common to all, as to test: cell count relative to DMSO control; melanoma cells; higher = more viable cells
Holding throughout (conditions): library dose: low library concentration; 72 h

The other results are listed elsewhere or left out. Repeats are few or missing, and single values can be far off.

This is an account of results in the supplement of paper PMC4604168 (melanoma cell lines).
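Further: cell number obtained by counting DAPI-stained nuclei in high-throughput microscope images with image analysis software, screen run in 1,536-well plates.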

On to `COc1ccc(C2=N[C@@H](c3ccc(Cl)cc3)[C@@H](c3ccc(Cl)cc3)N2C(=O)N2CCNC(=O)C2)c(OC(C)C)c1` [Nutlin-3] + CCCS(=O)(=O)Nc1ccc(F)c(C(=O)c2c[nH]c3ncc(Cl)cc23)c1F [PLX4720] (first compound 0.1 µM, partner dose 0.08 µM), for which the cell count in the test with WM115 amounted to 104%; in the test with WM1716, 110%; with WM1745, 116%; in the test on WM3526, 99.5%; with WM3619, 116%; in the test on WM451Lu it was 107%.

In the case of `Cn1c(=O)n(-c2ccc(C(C)(C)C#N)cc2)c2c3cc(-c4cnc5ccccc5c4)ccc3ncc21` + O=c1cc(-c2cccc3c2Sc2ccccc2S3)oc(N2CCOCC2)c1 [KU55933] (first compound 0.004 µM, partner dose 1 µM), the cell count in the test on WM115 is 93.9%; in the test on WM1716, 85.9%; in the test on WM1745 it was 91.5%; in the test with WM3526, 73.2%; in the test on WM3619, 74.7%; in the test on WM451Lu, 108%.

Take `Cn1c(=O)n(-c2ccc(C(C)(C)C#N)cc2)c2c3cc(-c4cnc5ccccc5c4)ccc3ncc21` + O=C(CCCCCCC(=O)Nc1ccccc1)NO [vorinostat] (first compound 0.004 µM, partner dose 0.08 µM): the cell count with WM115 came to 87.7%; in the test on WM1716, 124%; in the test on WM1745 it was 108%; in the test on WM3526 it was 78.7%; in the test with WM3619, 98.8%; in the test on WM451Lu, 75.4%.

For `Cc1cn(-c2cc(NC(=O)c3ccc(C)c(Nc4nccc(-c5cccnc5)n4)c3)cc(C(F)(F)F)c2)cn1` [nilotinib] + CCc1ccc(CCOc2ccc(CC3SC(=O)NC3=O)cc2)nc1 [pioglitazone] (first compound 0.2 µM, partner dose 2 µM), the cell count came out at 114% with WM115; 87.7% with WM1716; 97.3% with WM1745; 94.3% in the test with WM3526; 92.8% in the test with WM3619; 110% in the test with WM451Lu.

On to `COc1ccc(C2=N[C@@H](c3ccc(Cl)cc3)[C@@H](c3ccc(Cl)cc3)N2C(=O)N2CCNC(=O)C2)c(OC(C)C)c1` [Nutlin-3] + CN1CCN(c2ccc3nc(-c4c(N)c5c(F)cccc5[nH]c4=O)[nH]c3c2)CC1 [Dovitinib] (first compound 0.1 µM, partner dose 0.1 µM), for which the cell count in the test on WM115 amounted to 86.6%; with WM1716 it was 105%; with WM1745, 76.9%; in the test with WM3526, 108%; with WM3619, 83%; in the test with WM451Lu, 111%.

With `COc1ccc(C2=N[C@@H](c3ccc(Cl)cc3)[C@@H](c3ccc(Cl)cc3)N2C(=O)N2CCNC(=O)C2)c(OC(C)C)c1` [Nutlin-3] + Cc1cc(N2CCOCC2)cc2[nH]c(-c3c(NC[C@@H](O)c4cccc(Cl)c4)cc[nH]c3=O)nc12 [BMS536924] (first compound 0.1 µM, partner dose 0.2 µM), the cell count in the test with WM115 was determined as 93.4%; in the test on WM1716, 93.5%; in the test on WM1745, 73.8%; with WM3526 it was 90.2%; in the test on WM3619, 90.2%; in the test on WM451Lu, 94.8%.

Regarding `Cn1c(=O)n(-c2ccc(C(C)(C)C#N)cc2)c2c3cc(-c4cnc5ccccc5c4)ccc3ncc21` + Oc1nc(-c2ccc(C(F)(F)F)cc2)nc2c1CSCC2 [XAV939] (first compound 0.004 µM, partner dose 2 µM), the cell count in the test with WM115 worked out at 90%; in the test with WM1716 it was 57.4%; in the test on WM1745, 75.9%; with WM3526 it was 78.2%; in the test with WM3619, 85.4%; in the test on WM451Lu, 68.7%.

With `COc1ccc(C2=N[C@@H](c3ccc(Cl)cc3)[C@@H](c3ccc(Cl)cc3)N2C(=O)N2CCNC(=O)C2)c(OC(C)C)c1` [Nutlin-3] + CC1(C)NC(=O)N(c2ccc([N+](=O)[O-])c(C(F)(F)F)c2)C1=O [nilutamide] (first compound 0.1 µM, partner dose 1 µM), the cell count in the test on WM115 was determined as 82.9%; with WM1716, 80.3%; with WM1745, 77%; in the test on WM3526, 103%; with WM3619, 75.8%; in the test on WM451Lu, 101%.

As for `Cn1c(=O)n(-c2ccc(C(C)(C)C#N)cc2)c2c3cc(-c4cnc5ccccc5c4)ccc3ncc21` + CN(C)S(=O)(=O)c1ccc2c(c1)/C(=C/c1cc3c([nH]1)CCCC3)C(=O)N2 [SU6656] (first compound 0.004 µM, partner dose 0.4 µM), the cell count in the test with WM115 came to 77.4%; in the test with WM1716, 116%; in the test with WM1745 it was 87.2%; with WM3526, 95%; with WM3619, 141%; with WM451Lu it was 96.4%.

As to `Cc1cn(-c2cc(NC(=O)c3ccc(C)c(Nc4nccc(-c5cccnc5)n4)c3)cc(C(F)(F)F)c2)cn1` [nilotinib] + COC(=O)c1sccc1S(=O)(=O)Nc1ccc(Nc2ccccc2)cc1OC [GSK0660] (first compound 0.2 µM, partner dose 1 µM), the cell count with WM115 worked out at 97.7%; with WM1716, 85.2%; in the test on WM1745, 91.3%; in the test with WM3526, 94.1%; in the test on WM3619 it was 93.6%; in the test with WM451Lu, 133%.

As to `Cc1cn(-c2cc(NC(=O)c3ccc(C)c(Nc4nccc(-c5cccnc5)n4)c3)cc(C(F)(F)F)c2)cn1` [nilotinib] + COc1ccc(COc2ccc(Cc3cnc(N)nc3N)cc2OC)cc1 [GW2580] (first compound 0.2 µM, partner dose 1 µM), the cell count with WM115 was 111%; in the test on WM1716, 94.9%; in the test on WM1745 it was 89.7%; in the test with WM3526, 105%; in the test with WM3619, 110%; with WM451Lu it was 117%.

Take `Cc1cn(-c2cc(NC(=O)c3ccc(C)c(Nc4nccc(-c5cccnc5)n4)c3)cc(C(F)(F)F)c2)cn1` [nilotinib] + Cc1cc(N2CCOCC2)cc2[nH]c(-c3c(NC[C@@H](O)c4cccc(Cl)c4)cc[nH]c3=O)nc12 [BMS536924] (first compound 0.2 µM, partner dose 0.2 µM): the cell count is 88.5% with WM115; 110% in the test with WM1716; 63.6% in the test with WM1745; 80.7% in the test on WM3526; 114% in the test on WM3619; 127% with WM451Lu.

With `Cc1cn(-c2cc(NC(=O)c3ccc(C)c(Nc4nccc(-c5cccnc5)n4)c3)cc(C(F)(F)F)c2)cn1` [nilotinib] + CC(C)C[C@H](NC(=O)[C@H](Cc1ccccc1)NC(=O)c1cnccn1)B(O)O [Bortezomib] (first compound 0.2 µM, partner dose 0.001 µM), the cell count in the test with WM115 was 110%; in the test on WM1716, 84.9%; in the test on WM1745, 86.6%; in the test on WM3526 it was 95.3%; with WM3619, 80.4%; with WM451Lu it was 61.5%.

For the compound `Cc1cc(Nc2cc(N3CCN(C)CC3)nc(/C=C/c3ccccc3)n2)n[nH]1` + O=C(O)[C@@H]1[O][Sb](=[O])([O][Sb]2(=[O])[O][C@H]([C@H](O)CO)[C@H](O)[C@H](C(=O)O)[O]2)[O][C@H]([C@H](O)CO)[C@@H]1O [stibogluconate] (first compound 0.04 µM, partner dose 2 µM), the cell count was found to be 98.6% in the test with WM115; 104% in the test with WM1716; 84.6% with WM1745; 88.3% with WM3526; 106% with WM3619; 93.4% with WM451Lu.

Take `Cc1cn(-c2cc(NC(=O)c3ccc(C)c(Nc4nccc(-c5cccnc5)n4)c3)cc(C(F)(F)F)c2)cn1` [nilotinib] + Nc1nc(F)nc2c1ncn2[C@@H]1O[C@H](CO)[C@@H](O)[C@@H]1O [fludarabine] (first compound 0.2 µM, partner dose 0.2 µM): the cell count came to 97.4% in the test on WM115; 97.1% in the test on WM1716; 104% in the test on WM1745; 25.7% in the test with WM3526; 80.9% in the test with WM3619; 55.2% in the test on WM451Lu.

Consider `CC(C)C[C@H](NC(=O)[C@H](Cc1ccccc1)NC(=O)c1cnccn1)B(O)O` [Bortezomib] + Cn1cc(/C=C2\C(=O)Nc3cccnc32)c2ccccc21 [GW441756] (first compound 0.001 µM, partner dose 0.4 µM), for which the cell count came out at 103% in the test with WM115; 25.2% with WM1716; 58.5% in the test with WM1745; 88.9% in the test on WM3526; 17.6% in the test on WM3619; 81.1% in the test on WM451Lu.

As for `Cc1cn(-c2cc(NC(=O)c3ccc(C)c(Nc4nccc(-c5cccnc5)n4)c3)cc(C(F)(F)F)c2)cn1` [nilotinib] + OCc1c[nH]c2ccccc12 [Indole-3-carbinol] (first compound 0.2 µM, partner dose 0.8 µM), the cell count in the test with WM115 came to 121%; in the test on WM1716, 106%; in the test on WM1745, 84.6%; in the test on WM3526 it was 111%; with WM3619, 94%; with WM451Lu, 112%.

In the case of `Cn1c(=O)n(-c2ccc(C(C)(C)C#N)cc2)c2c3cc(-c4cnc5ccccc5c4)ccc3ncc21` + COc1ccc(COc2ccc(Cc3cnc(N)nc3N)cc2OC)cc1 [GW2580] (first compound 0.004 µM, partner dose 1 µM), the cell count in the test on WM115 was 89.9%; in the test on WM1716 it was 86.6%; with WM1745, 107%; in the test with WM3526, 88.9%; in the test with WM3619 it was 99.3%; in the test with WM451Lu it was 102%.

As for `Cc1cn(-c2cc(NC(=O)c3ccc(C)c(Nc4nccc(-c5cccnc5)n4)c3)cc(C(F)(F)F)c2)cn1` [nilotinib] + CO[C@@H]1[C@H](N(C)C(=O)c2ccccc2)C[C@H]2O[C@]1(C)n1c3ccccc3c3c4c(c5c6ccccc6n2c5c31)C(=O)NC4 [Midostaurin] (first compound 0.2 µM, partner dose 0.08 µM), the cell count was found to be 94.6% with WM115; 71.9% with WM1716; 68.4% in the test with WM1745; 83.9% with WM3526; 89.3% with WM3619; 97.9% in the test on WM451Lu.

Consider `COc1ccc(C2=N[C@@H](c3ccc(Cl)cc3)[C@@H](c3ccc(Cl)cc3)N2C(=O)N2CCNC(=O)C2)c(OC(C)C)c1` [Nutlin-3] + COc1cc(Nc2ncc(F)c(Nc3ccc4c(n3)NC(=O)C(C)(C)O4)n2)cc(OC)c1OC [Tamatinib] (first compound 0.1 µM, partner dose 0.4 µM), for which the cell count stood at 69.8% in the test with WM115; 88.8% with WM1716; 76.8% with WM1745; 75.8% in the test on WM3526; 101% in the test on WM3619; 94.2% in the test on WM451Lu.

On to `Cn1c(=O)n(-c2ccc(C(C)(C)C#N)cc2)c2c3cc(-c4cnc5ccccc5c4)ccc3ncc21` + CS(=O)(=O)CCNCc1ccc(-c2ccc3ncnc(Nc4ccc(OCc5cccc(F)c5)c(Cl)c4)c3c2)o1 [lapatinib] (first compound 0.004 µM, partner dose 0.8 µM), for which the cell count in the test with WM115 amounted to 101%; in the test on WM1716, 99.5%; in the test with WM1745, 95.9%; with WM3526 it was 68%; in the test on WM3619 it was 108%; in the test with WM451Lu, 100%.

`COc1ccc(C2=N[C@@H](c3ccc(Cl)cc3)[C@@H](c3ccc(Cl)cc3)N2C(=O)N2CCNC(=O)C2)c(OC(C)C)c1` [Nutlin-3] + COc1ccc2c(c1)CCC1C2CCC2(C)C(NCCCCCCN3C(=O)C=CC3=O)CCC12 [U73122] (first compound 0.1 µM, partner dose 0.4 µM): the cell count in the test on WM115 was 102%; in the test with WM1716 it was 80.9%; in the test on WM1745 it was 88.1%; in the test with WM3526 it was 85.3%; in the test on WM3619, 78.1%; with WM451Lu, 97.3%.

On to `Cc1cn(-c2cc(NC(=O)c3ccc(C)c(Nc4nccc(-c5cccnc5)n4)c3)cc(C(F)(F)F)c2)cn1` [nilotinib] + CCCCCCCCc1ccc(CCC(N)(CO)CO)cc1 [fingolimod] (first compound 0.2 µM, partner dose 2 µM), for which the cell count with WM115 came out at 97.2%; in the test on WM1716, 91.4%; with WM1745, 83.9%; with WM3526, 86.8%; in the test with WM3619, 85.3%; in the test on WM451Lu, 117%.

As for `Cc1cn(-c2cc(NC(=O)c3ccc(C)c(Nc4nccc(-c5cccnc5)n4)c3)cc(C(F)(F)F)c2)cn1` [nilotinib] + Cn1cncc1[C@@](N)(c1ccc(Cl)cc1)c1ccc2c(c1)c(-c1cccc(Cl)c1)cc(=O)n2C [tipifarnib] (first compound 0.2 µM, partner dose 0.01 µM), the cell count with WM115 amounted to 103%; in the test on WM1716, 76.7%; in the test with WM1745, 105%; in the test with WM3526 it was 82.4%; in the test with WM3619, 136%; in the test with WM451Lu it was 105%.
